# Measured values taken from PMC4336329 (PLoS ONE, 2015).
# Screen size: about 310,000 compounds; about 2,200 (0.71%) showed an effect of 50% or more. Effects have a minus sign here. The list shows a part of the results.
# Molecular target: human ether-à-go-go-related gene (hERG) potassium channel (human, UniProt Q12809)
# Assay: primary screen, population patch clamp on CHO cells stably expressing hERG
# Chain of human ether-à-go-go-related gene (hERG) potassium channel (Q12809 whole entry, looked up): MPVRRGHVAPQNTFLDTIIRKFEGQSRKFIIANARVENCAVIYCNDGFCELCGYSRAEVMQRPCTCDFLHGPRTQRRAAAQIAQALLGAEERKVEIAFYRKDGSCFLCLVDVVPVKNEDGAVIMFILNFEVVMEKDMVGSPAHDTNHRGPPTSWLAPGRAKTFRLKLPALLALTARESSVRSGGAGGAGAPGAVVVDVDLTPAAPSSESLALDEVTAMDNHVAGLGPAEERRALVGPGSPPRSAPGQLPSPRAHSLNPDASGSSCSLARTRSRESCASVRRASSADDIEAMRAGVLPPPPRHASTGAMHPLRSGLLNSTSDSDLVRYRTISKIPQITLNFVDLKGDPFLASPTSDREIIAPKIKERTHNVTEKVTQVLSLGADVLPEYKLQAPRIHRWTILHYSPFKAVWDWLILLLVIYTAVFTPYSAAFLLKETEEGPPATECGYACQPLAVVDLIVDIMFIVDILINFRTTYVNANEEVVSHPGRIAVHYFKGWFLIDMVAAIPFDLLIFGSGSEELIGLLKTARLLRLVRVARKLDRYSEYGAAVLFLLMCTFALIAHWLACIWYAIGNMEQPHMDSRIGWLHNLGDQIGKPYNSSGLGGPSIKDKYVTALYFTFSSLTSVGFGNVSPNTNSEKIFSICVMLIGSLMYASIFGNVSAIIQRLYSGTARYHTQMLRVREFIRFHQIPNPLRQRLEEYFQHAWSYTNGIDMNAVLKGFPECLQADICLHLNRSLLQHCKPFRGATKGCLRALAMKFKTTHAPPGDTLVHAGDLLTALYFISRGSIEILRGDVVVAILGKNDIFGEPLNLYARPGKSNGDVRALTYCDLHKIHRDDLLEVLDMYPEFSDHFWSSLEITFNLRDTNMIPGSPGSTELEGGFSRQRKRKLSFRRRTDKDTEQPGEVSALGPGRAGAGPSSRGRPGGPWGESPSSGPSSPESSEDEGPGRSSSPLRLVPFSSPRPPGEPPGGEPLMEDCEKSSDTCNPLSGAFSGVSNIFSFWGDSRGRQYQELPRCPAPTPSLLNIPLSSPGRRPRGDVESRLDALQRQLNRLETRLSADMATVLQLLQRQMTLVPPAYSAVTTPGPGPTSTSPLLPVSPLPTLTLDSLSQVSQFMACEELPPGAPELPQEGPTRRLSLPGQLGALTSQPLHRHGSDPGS
row,SMILES,"hERG current change (%, negative = inhibition) at 1uM"
1,O=C1N=C(N2CCCC2)S/C1=C\c1cccc(Br)c1,8.12%
2,CCN(CC)S(=O)(=O)c1ccc(O)c(C(=O)OCC(=O)Nc2ccc(OC(F)(F)F)cc2)c1,-7.47%
3,COc1ccc(CN=C2NC(=O)CC(C(=O)Nc3ccccc3C)S2)cc1 (stereo not drawn),4.34%
4,COc1ccc(C(=O)N2N=C3CC(C)(C)OCC3C2c2ccccc2)cc1 (stereo not drawn),-2.72%
5,CCCS(=O)(=O)c1c(S(=O)(=O)CCC)c2c(C)cccn2c1C(=O)N/N=C/c1cc(O)cc(O)c1,12.4%
6,CCN1CCN(c2ccc(NC(=O)c3cccc(F)c3)cc2Cl)CC1,-8.27%
7,COc1ccc(OC)c(C2=NS(=O)(=O)N(C)C(C(=O)NCc3ccco3)=C2)c1,3.17%
8,Cc1nn(Cc2ccc(Cl)cc2Cl)c(Cl)c1/C=C/C(=O)OCC(=O)NCC(F)(F)F,9.84%
9,CCCC(=O)Nc1cccc(-c2nc3ccccc3c(=O)o2)c1,9.33%
10,c1ccc(CCCNc2ncnc3nc[nH]c23)cc1,-2.14%
11,CCOc1ccc(C2=NNC(c3cccs3)=Nc3ccc(OC)cc32)cc1,-17.2%
12,CCOC(=O)c1cc2c(=O)n3ccccc3nc2n(Cc2ccco2)c1=NC(=O)c1ccc(OC)cc1,-7.26%
13,CSc1nnc2c(n1)OC1(Nc3ccccc3-2)C(=O)Nc2ccccc21 (stereo not drawn),11.9%
14,COCCNC(=O)C(c1ccc(C)o1)N(C(=O)c1snc(C(N)=O)c1N)c1ccc(C)c(C)c1 (stereo not drawn),6.02%
15,CSc1cccc(NC(=O)c2c(Cl)cnn2C)c1,10.1%
16,Cc1ccc2nc(-c3ccc(N4C(=O)CC(N5CCN(CCO)CC5)C4=O)cc3)sc2c1 (stereo not drawn),4.5%
17,NS(=O)(=O)OCCCc1ccc(C(F)(F)F)cc1,6.75%
18,CC(=O)Oc1cccc(N2C(=O)C3C(C2=O)C2C=CC3C23CC3)c1 (stereo not drawn),1.89%
19,C/C(=N\NC(=O)c1cc2ccccc2cc1O)c1cccs1,17.7%
20,COc1cc(OC)c2c(C)cc(=O)oc2c1C(CCN1CCOCC1)c1ccc2c(c1)OCO2 (stereo not drawn),-14.2%
21,CC#CCN(Cc1ccco1)C(=O)c1ccc(OC2CCN(Cc3ccccn3)CC2)cc1,-2.9%
22,COC(=O)c1ccc(Nc2ccc3nonc3c2[N+](=O)[O-])cc1,19.1%
23,CNC(=S)NNC(=O)CNc1ccc(C)c(Cl)c1,11.5%

row,SMILES,"hERG current change (%, negative = inhibition) at 1uM"
1,Cn1c(=O)n(C)c2cc(N3CCCC3)c(NC(=O)c3cccc(F)c3)cc21,10.3%
2,c1coc(CNc2ncnc3nc[nH]c23)c1,21%
3,CCOC(=O)CNC(=O)Cn1cnc2c(nnn2-c2cccc(OC)c2)c1=O,17.3%
4,COc1ccc2sc(-c3ccc(SC)cc3)c(C#CC(C)(C)O)c2c1,12.3%
5,COc1cccc(Cn2nnc(C(=O)Nc3cc(Cl)ccc3OC)c2N)c1,13%
6,O=C(Cn1c(SCC(=O)N2CCCc3ccccc32)nc2ccccc21)N1CCCC1,-0.707%
7,COc1ccc(C(=O)NNC(=S)NC(=O)c2cccc([N+](=O)[O-])c2)cc1,20.4%
8,CCOc1ccc2c(CC)cc(=O)oc2c1OCC,0.0088%
9,Cc1cc(C(=O)OCC(=O)c2ccc3c(c2)NC(=O)CO3)c2ccccc2n1,20.6%
10,O=C(CCC(=O)c1ccc(F)cc1)Nc1ccccc1Cl,1.94%
11,CCOc1ccc2nc(SCC(=O)NCc3ccco3)sc2c1,-15.8%
12,COc1ccccc1-c1nc(C(N)=O)c2[nH]c(=O)n(-c3cccc(C)c3)c2n1,10.9%
13,COc1ccc(S(=O)(=O)Nc2ccccc2C(=O)NC(C)C)cc1OC,18.9%
14,COc1cc(OC)c(-n2c(C)cc(C=O)c2C)cc1Cl,-2%
15,CN(C)S(=O)(=O)N1CCC(Oc2ccc(C(=O)N3CCCCCCC3)cc2)CC1,15.4%
16,O=C(CN1C(=O)c2ccccc2C1=O)NC1CCCCC1,8.28%
17,COC(=O)c1sccc1NC(=S)N1CCN(c2ccc(F)cc2)CC1,10.6%
18,CCOC(=O)N1CCN(C(=O)CN(c2ccc(OC)cc2)S(C)(=O)=O)CC1,5.75%
19,CC(C)Cn1c2nc3ccccc3nc2c2c(=O)n(CCN3CCOCC3)cnc21,-6.92%
20,CCCCNC(=O)CSc1nc2ccsc2c(=O)n1CCCC(=O)NCCc1ccc(S(N)(=O)=O)cc1,5.18%
21,O=C(c1ccc(NS(=O)(=O)c2cccs2)cc1)N1CCOCC1,13.8%
22,CC1=C(C(=O)NCc2ccccc2)C(c2cccs2)NC(=S)N1 (stereo not drawn),8.67%
